# Measured values taken from PubChem BioAssay AID445 (National Center for Advancing Translational Sciences (NCATS), 2006).
# About 40 (0.04%) of roughly 110,000 compounds were called active. This list was built around the results that the source calls inconclusive (neither active nor inactive); the mix of calls is not that of the screen. Calls come from the whole dose curve; as a rule, active = well fitted curve in the direction sought with a large enough effect in the signal ratio (not every such curve was filed as active); inconclusive = small, poorly fitted or top-dose-only effect, or a change in a side signal; inactive = flat fitted curve, though single readings scatter; the % refers to the signal ratio.
# Assay: IkB Signaling;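 note: 0% = basal untreated cells and 100% = reference inhibitor full response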
# Settings: ABC-DLBCL IkBa-CBG/CBR dual luciferase ratio (green luciferase fused to IkBa over red control in OCI-Ly3 lymphoma cells), 4 h; IkBa stabilization activation: at 57.1 µM (top of the series), scaled: untreated 0%, proteasome inhibitor 100% unless noted
# How it was run: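 Luminescence ratio of IκBα-fused green versus native red beetle luciferase in OCI-Ly3 cells, 4 h post-doxycycline with compound; red signal alone, scaled from basal (0%) to zero light (-100%), flagged nonspecific or cytotoxic effects.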
row,SMILES,IkBa stabilization activation
1,Cc1cccc(NS(=O)(=O)c2ccc3c(c2)[C@H]2C=CC[C@H]2[C@@H](c2ccc(F)cc2)N3)c1,inconclusive: 9.88% [signal inhibitor]
2,CCCOc1ccc(-c2nn(-c3ccccc3)cc2C2NC(=O)NC(C)=C2C(=O)OC)cc1 (configuration not stated),inconclusive: 6.79% [signal inhibitor]
3,CCc1ccc(C(=O)c2cn(CC(=O)Nc3cc(OC)ccc3OC)c3ccc(C)cc3c2=O)cc1,inconclusive: 1.02% [signal inhibitor]
4,Cc1ccc(C)c(NC(=O)Cn2c(=O)nc(-c3ccccc3)c3ccccc32)c1,inconclusive: 1.32% [signal inhibitor]
5,Cc1noc(C)c1-c1ccc2ncnc(N(C)C)c2c1,"inactive: 0.573% [at 11.4 µM, scaled: untreated 0%, proteasome inhibitor 100%]"
6,COc1ccc(-c2nc(CCNC(=O)c3cccs3)cs2)cc1,inconclusive: 8.73% [signal inhibitor]
7,COc1ccc(NC(=O)CSC2=Nc3ccccc3C3=NC(CCC(=O)NCc4ccc(F)cc4)C(=O)N23)cc1Cl (configuration not stated),inconclusive: 2.66% [signal inhibitor]
8,O=c1c(CCc2ccccc2)nc2cnc(N3CCOCC3)nc2n1-c1ccccc1,"inactive: -2.45% [at 11.4 µM, scaled: untreated 0%, proteasome inhibitor 100%]"
9,CCCCC(CC)CNC(=O)CN(C)S(=O)(=O)c1ccc2c(c1)c(=O)n(C)c(=O)n2C (configuration not stated),inactive
10,CCOC(=O)c1ccc(NC(=O)CC2Sc3ccc(C(F)(F)F)cc3NC2=O)cc1 (configuration not stated),inconclusive: 0.126% [signal inhibitor]
11,Cc1nn(C)c2c1c(-c1ccccc1)cc(=O)n2Cc1ccccc1Cl,inactive
12,COc1cccc(N2CCN(C(=O)C3CCN(S(=O)(=O)c4cccc5nonc45)CC3)CC2)c1,inconclusive: 2.87% [signal inhibitor]
13,Cc1cc(NC(=O)CCNS(=O)(=O)c2ccc3c(c2)CCCC(=O)N3)ccc1Br,inconclusive: -2.12% [signal inhibitor]
14,CCOC(=O)N1CCC(N2Cc3cccc(C(=O)NCc4ccccc4OC)c3C2=O)CC1,inconclusive: 3.54% [signal inhibitor]
15,C#CCSc1nc(-c2ccccc2)cc(-c2ccccc2)c1C#N,inactive
16,Cc1ccc(-n2c3c(cc(-c4nc(-c5ccc(Cl)cc5)cs4)c2=O)C(=O)CC(C)(C)C3)cc1C,inconclusive: 2.49% [signal inhibitor]
17,O=S(=O)(c1ccc(-c2cc(C(F)(F)F)on2)s1)N1CCN(c2ccc(F)cc2)CC1,inactive
